Results from the supplement of paper PMC12217912.
This is one part of the list. The full chains were built here from the parent and the listed change. Values near 0.05 are background.

B1: TEV protease; numbered along this chain (parent)
chain: MGESLFKGPRDYNPISSSICHLTNESDGHTTSLYGIGFGPFIITNKHLFRRNNGTLVVQSLHGVFKVKDTTTLQQHLVDGRDMIIIRMPKDFPPFPQKLKFREPQREERICLVTTNFQTKSMSSMVSDTSCTFPSGDGIFWKHWIQTKDGQCGSPLVSTRDGFIVGIHSASNFTNTNNYFTSVPKNFMELLTNQEAQQWVSGWRLNADSVLWGGHKVFMVKPEEPFQPVKEATQL

Variants of: B1
Experiment: raw area under fraction-flipped curve 0-4 h after induction (AUC4h, not background-subtracted), DNA-recorder readout of cleavage of the substrate (dimensionless); higher = more cleavage of the substrate by the protease variant
Details: temperature: 34 °C; time window: 0-4 h after rhamnose induction
Procedure: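 In vivo DNA recorder in E. coli TOP10(DE3) ΔrhaA at 34 °C. Each TEVp single-site mutant (parent TEVp 0) is paired with a single-site variant of the 7-mer TEVs (canonical ENLYFQ|S). The substrate sits between flexible linkers in a Bxb1-sfGFP-TEVs-SsrA fusion, so cleavage stabilises Bxb1 and speeds flipping of a recombination array, read by NGS. The value is the raw area under the fraction-flipped curve over 0-4 h after rhamnose induction (AUC4h), with ≥20 reads per time point. It is not background-subtracted; inactive controls average about 0.047.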
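Further: Bxb1 expression induced with 0.2% (w/v) L-rhamnose at OD600 near 0.5, cultures sampled hourly, flipped fraction per protease–substrate barcode pair counted by paired-end Illumina sequencing.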

| Variant | area with substrate ENLCFQS | area with substrate ENLDFQS | area with substrate ENLFFQS | area with substrate ENLHFQS | area with substrate ENLIFQS | area with substrate ENLKFQS | area with substrate ENLLFQS | area with substrate ENLNFQS | area with substrate ENLPFQS | area with substrate ENLSFQS | area with substrate ENLWFQS | area with substrate ENLEFQS | area with substrate ENLQFQS | area with substrate ENLRFQS | area with substrate ENLTFQS | area with substrate ENLVFQS | area with substrate ENLGFQS | area with substrate ENLMFQS |
| --- | --- | --- | --- | --- | --- | --- | --- | --- | --- | --- | --- | --- | --- | --- | --- | --- | --- | --- |
| MGESLFKGPRDYNPISSSICHLTNESDGHTTSLYGLGFGPFIITNKHLFRRNNGTLVVQSLHGVFKVKDTTTLQQHLVDGRDMIIIRMPKDFPPFPQKLKFREPQREERICLVTTNFQTKSMSSMVSDTSCTFPSGDGIFWKHWIQTKDGQCGSPLVSTRDGFIVGIHSASNFTNTNNYFTSVPKNFMELLTNQEAQQWVSGWRLNADSVLWGGHKVFMVKPEEPFQPVKEATQL [I36L] | 0.0772 | 0.0577 | 0.08 | 0.055 | 0.0904 | 0.0768 | 0.0682 | 0.0527 | 0.0652 | 0.0588 | 0.0797 |  |  |  |  |  |  |  |
| MGESLFKGPRDYNPISSSICHLTNESDGHTTSLYGIGFGPFIITNKHLFRRNNGTLVVQSLHGVFKVKRTTTLQQHLVDGRDMIIIRMPKDFPPFPQKLKFREPQREERICLVTTNFQTKSMSSMVSDTSCTFPSGDGIFWKHWIQTKDGQCGSPLVSTRDGFIVGIHSASNFTNTNNYFTSVPKNFMELLTNQEAQQWVSGWRLNADSVLWGGHKVFMVKPEEPFQPVKEATQL [D69R] | 0.0765 | 0.068 | 0.0779 | 0.05 | 0.0696 | 0.0757 |  | 0.0669 | 0.0436 | 0.0603 | 0.0655 | 0.0543 | 0.0538 | 0.0693 | 0.0596 | 0.0324 |  |  |
| MGESLFKGPRDYNPISSSICHLTNESDGHTTSLYGIGFGPFIITNKHLFRRNNGTLVVQSLHGVFKVKDTTTLQQHLVDGEDMIIIRMPKDFPPFPQKLKFREPQREERICLVTTNFQTKSMSSMVSDTSCTFPSGDGIFWKHWIQTKDGQCGSPLVSTRDGFIVGIHSASNFTNTNNYFTSVPKNFMELLTNQEAQQWVSGWRLNADSVLWGGHKVFMVKPEEPFQPVKEATQL [R81E] | 0.0561 | 0.0587 | 0.0597 | 0.0617 | 0.0591 | 0.0627 | 0.0482 | 0.0621 |  |  |  | 0.0615 | 0.0627 |  |  |  | 0.069 |  |
| MGESLFKGPRDYNPISSSICHLTNESDGHTTSLYGIGFGPFIITNKHLFRRNNYTLVVQSLHGVFKVKDTTTLQQHLVDGRDMIIIRMPKDFPPFPQKLKFREPQREERICLVTTNFQTKSMSSMVSDTSCTFPSGDGIFWKHWIQTKDGQCGSPLVSTRDGFIVGIHSASNFTNTNNYFTSVPKNFMELLTNQEAQQWVSGWRLNADSVLWGGHKVFMVKPEEPFQPVKEATQL [G54Y] | 0.0731 |  | 0.0617 |  |  |  |  | 0.0628 |  | 0.053 | 0.0664 | 0.0607 | 0.0638 | 0.059 |  | 0.114 | 0.0711 |  |
| MGESLFKGPRDYNPISSSICHLTNESDGHTTSLYGIGFGPFIITNKHLFRRRNGTLVVQSLHGVFKVKDTTTLQQHLVDGRDMIIIRMPKDFPPFPQKLKFREPQREERICLVTTNFQTKSMSSMVSDTSCTFPSGDGIFWKHWIQTKDGQCGSPLVSTRDGFIVGIHSASNFTNTNNYFTSVPKNFMELLTNQEAQQWVSGWRLNADSVLWGGHKVFMVKPEEPFQPVKEATQL [N52R] | 0.0658 |  | 0.0522 | 0.0555 |  | 0.0602 |  | 0.0686 |  | 0.0645 |  | 0.0432 | 0.0639 |  |  |  |  | 0.0661 |
| MGESLFKGPRDYNPISSSICHLTNESDGHGTSLYGIGFGPFIITNKHLFRRNNGTLVVQSLHGVFKVKDTTTLQQHLVDGRDMIIIRMPKDFPPFPQKLKFREPQREERICLVTTNFQTKSMSSMVSDTSCTFPSGDGIFWKHWIQTKDGQCGSPLVSTRDGFIVGIHSASNFTNTNNYFTSVPKNFMELLTNQEAQQWVSGWRLNADSVLWGGHKVFMVKPEEPFQPVKEATQL [T30G] | 0.0649 | 0.0508 | 0.0733 | 0.054 | 0.0786 | 0.0691 | 0.0703 | 0.0603 | 0.0568 | 0.0572 | 0.0693 |  | 0.0522 |  |  | 0.0698 | 0.0813 | 0.0512 |
| MGESLFKGPRDYNPISSSICHLTNESDGHTTSLYGIGFGPFIITNKSLFRRNNGTLVVQSLHGVFKVKDTTTLQQHLVDGRDMIIIRMPKDFPPFPQKLKFREPQREERICLVTTNFQTKSMSSMVSDTSCTFPSGDGIFWKHWIQTKDGQCGSPLVSTRDGFIVGIHSASNFTNTNNYFTSVPKNFMELLTNQEAQQWVSGWRLNADSVLWGGHKVFMVKPEEPFQPVKEATQL [H47S] | 0.0599 | 0.0723 | 0.0737 | 0.052 | 0.0661 | 0.0578 | 0.0734 | 0.0555 | 0.0633 | 0.0637 | 0.0646 | 0.0598 |  | 0.0595 |  | 0.0647 |  |  |
| MGESLFKGPRDYNPISSSICHLTNESDGHTTSLYGIGFGPFIITNKHLFRRNNGTLVVQSLHGVFKVKDTTTLQQHDVDGRDMIIIRMPKDFPPFPQKLKFREPQREERICLVTTNFQTKSMSSMVSDTSCTFPSGDGIFWKHWIQTKDGQCGSPLVSTRDGFIVGIHSASNFTNTNNYFTSVPKNFMELLTNQEAQQWVSGWRLNADSVLWGGHKVFMVKPEEPFQPVKEATQL [L77D] | 0.0567 | 0.0668 | 0.0634 | 0.062 | 0.0618 | 0.0652 |  | 0.0702 | 0.0649 | 0.0799 | 0.0588 |  | 0.0587 | 0.0665 |  |  | 0.0615 | 0.0592 |
| MGESLFKGPRDYNPISSSICHLTNESDGHTTSLYGIGFGPFHITNKHLFRRNNGTLVVQSLHGVFKVKDTTTLQQHLVDGRDMIIIRMPKDFPPFPQKLKFREPQREERICLVTTNFQTKSMSSMVSDTSCTFPSGDGIFWKHWIQTKDGQCGSPLVSTRDGFIVGIHSASNFTNTNNYFTSVPKNFMELLTNQEAQQWVSGWRLNADSVLWGGHKVFMVKPEEPFQPVKEATQL [I42H] | 0.0303 | 0.05 | 0.0587 | 0.0609 |  | 0.0439 | 0.0531 | 0.057 | 0.0451 | 0.0556 | 0.0591 |  |  | 0.0198 |  | 0.0279 | 0.044 | 0.061 |
